Experimental data: the supplement of paper PMC12217912
The other results are listed elsewhere or left out. Sequences were assembled here from the parent chain. Inactive controls read about 0.05.

B1: TEV protease; numbered along this chain (parent)
chain: MGESLFKGPRDYNPISSSICHLTNESDGHTTSLYGIGFGPFIITNKHLFRRNNGTLVVQSLHGVFKVKDTTTLQQHLVDGRDMIIIRMPKDFPPFPQKLKFREPQREERICLVTTNFQTKSMSSMVSDTSCTFPSGDGIFWKHWIQTKDGQCGSPLVSTRDGFIVGIHSASNFTNTNNYFTSVPKNFMELLTNQEAQQWVSGWRLNADSVLWGGHKVFMVKPEEPFQPVKEATQL

Variants of: B1
Test: raw area under fraction-flipped curve 0-4 h after induction (AUC4h, not background-subtracted), DNA-recorder readout of cleavage of the substrate (dimensionless); higher = more cleavage of the substrate by the protease variant
Conditions: temperature: 34 °C; time window: 0-4 h after rhamnose induction
Protocol: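 In vivo DNA recorder in E. coli TOP10(DE3) ΔrhaA at 34 °C. Each TEVp single-site mutant (parent TEVp 0) is paired with a single-site variant of the 7-mer TEVs (canonical ENLYFQ|S). The substrate sits between flexible linkers in a Bxb1-sfGFP-TEVs-SsrA fusion, so cleavage stabilises Bxb1 and speeds flipping of a recombination array, read by NGS. The value is the raw area under the fraction-flipped curve over 0-4 h after rhamnose induction (AUC4h), with ≥20 reads per time point. It is not background-subtracted; inactive controls average about 0.047.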
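Also: Bxb1 expression induced with 0.2% (w/v) L-rhamnose at OD600 near 0.5, cultures sampled hourly, flipped fraction per protease–substrate barcode pair counted by paired-end Illumina sequencing.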

Variant | area with substrate ENLAFQS | area with substrate ENLCFQS | area with substrate ENLDFQS | area with substrate ENLEFQS | area with substrate ENLFFQS | area with substrate ENLHFQS | area with substrate ENLIFQS | area with substrate ENLLFQS | area with substrate ENLMFQS | area with substrate ENLNFQS | area with substrate ENLPFQS | area with substrate ENLQFQS | area with substrate ENLRFQS | area with substrate ENLSFQS | area with substrate ENLTFQS | area with substrate ENLVFQS | area with substrate ENLWFQS | area with substrate ENLGFQS | area with substrate ENLKFQS
MGESLFKGPRDYNPISSSICHLTNESDGHTTSLYGIGFGPFIITNKHLFRRNNGTLVVQSLHGVFKVKDTTTLQQHLVDGRDMIIIRMPKDFPPFPQKLKFREPQREERICKVTTNFQTKSMSSMVSDTSCTFPSGDGIFWKHWIQTKDGQCGSPLVSTRDGFIVGIHSASNFTNTNNYFTSVPKNFMELLTNQEAQQWVSGWRLNADSVLWGGHKVFMVKPEEPFQPVKEATQL [L112K] | 0.0633 | 0.0827 | 0.0608 | 0.05 | 0.0996 | 0.0728 | 0.0937 | 0.068 | 0.0921 | 0.0609 | 0.0462 | 0.0721 | 0.0667 | 0.0641 | 0.0746 | 0.0896 | 0.0656 | – | –
MGESLFKGPRDYNPISSSICHLTNESDGHTTSLYGIGFGPFIITNKHLFRRNNGTLVVQSLHGVFKVKDTTTLQQHLVDGRDMIIIRMPKDFPPFPQKLKFREPQREERICTVTTNFQTKSMSSMVSDTSCTFPSGDGIFWKHWIQTKDGQCGSPLVSTRDGFIVGIHSASNFTNTNNYFTSVPKNFMELLTNQEAQQWVSGWRLNADSVLWGGHKVFMVKPEEPFQPVKEATQL [L112T] | 0.0522 | 0.0717 | 0.0739 | 0.0796 | 0.0637 | 0.069 | – | 0.0729 | – | 0.0634 | 0.0603 | 0.0654 | – | 0.0459 | – | 0.0695 | – | 0.0704 | 0.0654
MGESLFKGPRDYNPISSSICHLTNESDGHTTSLYGIGFGPFIITNKHLFRRNNGTLVVQSLHGVFKVKDTTTLQQHLVDGRDMIIIRMPKDFPPFPQKLKFREPQREERICVVTTNFQTKSMSSMVSDTSCTFPSGDGIFWKHWIQTKDGQCGSPLVSTRDGFIVGIHSASNFTNTNNYFTSVPKNFMELLTNQEAQQWVSGWRLNADSVLWGGHKVFMVKPEEPFQPVKEATQL [L112V] | 0.0366 | – | – | 0.0723 | 0.106 | 0.0616 | – | 0.058 | – | 0.0676 | 0.0642 | 0.0676 | 0.0701 | 0.0599 | 0.0596 | 0.0895 | 0.0638 | 0.0728 | 0.0789
MGESLFKGPRDYNPISSSICHLTNESDGHTTSLYGIGFGPFIITNKHLFRRNNGTLVVQSLHGVFKVKDTTTLQQHLVDGRDMIIIRMPKDFPPFPQKLKFREPQREERICLVTGNFQTKSMSSMVSDTSCTFPSGDGIFWKHWIQTKDGQCGSPLVSTRDGFIVGIHSASNFTNTNNYFTSVPKNFMELLTNQEAQQWVSGWRLNADSVLWGGHKVFMVKPEEPFQPVKEATQL [T115G] | 0.0617 | – | 0.0614 | 0.0638 | – | – | – | – | – | – | – | – | – | – | – | 0.0608 | 0.05 | – | 0.0737
MGESLFKGPRDYNPISSSICHLTNESDGHTTSLYGIGFGPFIITNKHLFRRNNGTLVVQSLHGVFKVKDTTTLQQHLVDGRDMIIIRMPKDFPPFPQKLKFREPQREERICLVTMNFQTKSMSSMVSDTSCTFPSGDGIFWKHWIQTKDGQCGSPLVSTRDGFIVGIHSASNFTNTNNYFTSVPKNFMELLTNQEAQQWVSGWRLNADSVLWGGHKVFMVKPEEPFQPVKEATQL [T115M] | 0.0626 | 0.0718 | 0.0578 | 0.0628 | 0.0858 | 0.0638 | – | 0.0636 | 0.0581 | 0.0619 | 0.0759 | 0.0731 | 0.113 | 0.0718 | 0.071 | 0.0835 | 0.051 | 0.0862 | 0.0784
MGESLFKGPRDYNPISSSICHLTNESDGHTTSLYGIGFGPFIITNKHLFRRNNGTLVVQSLHGVFKVKDTTTLQQHLVDGRDMIIIRMPKDFPPFPQKLKFREPQREERICLVTTNVQTKSMSSMVSDTSCTFPSGDGIFWKHWIQTKDGQCGSPLVSTRDGFIVGIHSASNFTNTNNYFTSVPKNFMELLTNQEAQQWVSGWRLNADSVLWGGHKVFMVKPEEPFQPVKEATQL [F117V] | 0.0581 | 0.0865 | 0.053 | 0.0558 | 0.0898 | 0.0342 | – | 0.0663 | 0.0765 | – | 0.0773 | 0.0709 | 0.0764 | 0.0602 | – | 0.0571 | 0.071 | 0.0731 | –
MGESLFKGPRDYNPISSSICHLTNESDGHTTSLYGIGFGPFIITNKHLFRRNNGTLVVQSLHGVFKVKDTTTLQQHLVDGRDMIIIRMPKDFPPFPQKLKFREPQREERICLVTTNFQMKSMSSMVSDTSCTFPSGDGIFWKHWIQTKDGQCGSPLVSTRDGFIVGIHSASNFTNTNNYFTSVPKNFMELLTNQEAQQWVSGWRLNADSVLWGGHKVFMVKPEEPFQPVKEATQL [T119M] | 0.0639 | – | 0.0806 | 0.0598 | 0.0598 | – | – | 0.0851 | – | 0.0711 | – | – | 0.0703 | – | – | – | – | – | –
MGESLFKGPRDYNPISSSICHLTNESDGHTTSLYGIGFGPFIITNKHLFRRNNGTLVVQSLHGVFKVKDTTTLQQHLVDGRDMIIIRMPKDFPPFPQKLKFREPQREERICLVTTNFQTISMSSMVSDTSCTFPSGDGIFWKHWIQTKDGQCGSPLVSTRDGFIVGIHSASNFTNTNNYFTSVPKNFMELLTNQEAQQWVSGWRLNADSVLWGGHKVFMVKPEEPFQPVKEATQL [K120I] | 0.0831 | 0.0499 | 0.0783 | 0.0643 | 0.0935 | – | 0.077 | – | – | – | 0.0374 | 0.059 | – | 0.0542 | – | – | 0.0587 | – | 0.0804
